In all, about 81,000 sequences were measured (“one-hybrid fitness for binding parS DNA”: median about -0.17, highest 2% from about 0.51 on). Some of the results follow.
B1: Caulobacter ParB omega fusion; a variant is named by its letters at X, in order, B8GW30 (parent)
chain: MESVVVGEPGMSEGRRGLGRGLSALLGEVDAAPAQAPGEQLGGSREAPIEILQRNPDQPRRTFREEDLEDLSNSIREKGVLQPILVRPSPDTAGEYQIVAGERAWRAAQRAGLKTVPIMVRELDDLAVLEIGIIENVQRADLNVLEEALSYKVLMEKFERTQENIAQTIGKSXSHVANXMRLLXLPDEVQSYLVSGELTAXHARAIAAAADPVALAKQIIEGGLSVRETEALARKAPNLSAGKSKGGRPPRVKDTDTQALESDLSSVLGLDVSIDHRGSTGTLTITYATLEQLDDLCNRLTRGI

Variants of: B1
Test: one-hybrid fitness for binding parS DNA (scaled: cognate 1, non-cognate 0); higher = stronger binding
Settings: with parS DNA site
Procedure, shortened: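 Bacterial one-hybrid selection in E. coli USO rpoZ- hisB- pyrF- with a HIS3 reporter carrying the site 19 bp from the promoter, screening Caulobacter ParB libraries with four specificity codons randomised (NNS). Cells grew 48 hours at 37°C on M9-minus-histidine plus 0.1 mM IPTG and 5 mM 3-AT. Plasmids before and after selection were Illumina-sequenced, three replicate libraries pooled, and variants under 10 reads dropped. Fitness is the log change in variant-to-wild-type read ratio, rescaled to cognate 1, non-cognate 0.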

| Variant | one-hybrid fitness for binding parS DNA |
| --- | --- |
| VPVT | ≤ 0.2 |
| CMKE | ≤ 0.2 |
| QNFE | ≤ 0.2 |
| YYKE | ≤ 0.2 |
| SNMS | ≤ 0.2 |
| LIMS | ≤ 0.2 |
| TVVR | ≤ 0.2 |
| MWMR | ≤ 0.2 |
| KCLN | ≤ 0.2 |
| YQQR | ≤ 0.2 |
| RGKY | 0.436 |
| QFWG | ≤ 0.2 |
| MPDQ | ≤ 0.2 |
| SQRT | ≤ 0.2 |
| TLAA | ≤ 0.2 |
| RRQF | ≤ 0.2 |
| DGSS | ≤ 0.2 |
| CMNW | ≤ 0.2 |
| TAPC | ≤ 0.2 |
| SAIQ | ≤ 0.2 |
| PCSC | ≤ 0.2 |
| MFRT | ≤ 0.2 |
| TMEW | ≤ 0.2 |
| AVRV | ≤ 0.2 |

| Variant | one-hybrid fitness for binding parS DNA |
| --- | --- |
| NQHA | ≤ 0.2 |
| NKDS | ≤ 0.2 |
| RYPQ | ≤ 0.2 |
| MGSG | ≤ 0.2 |
| RSAW | 0.219 |
| WAHL | ≤ 0.2 |
| DEPA | ≤ 0.2 |
| DQSQ | ≤ 0.2 |
| SRKW | ≤ 0.2 |
| NEST | ≤ 0.2 |
| TVQG | ≤ 0.2 |
| VVLH | ≤ 0.2 |
| NTKY | ≤ 0.2 |
| RADW | ≤ 0.2 |
| KRNA | ≤ 0.2 |
| RIIE | ≤ 0.2 |
| SSNR | ≤ 0.2 |
| GFKI | ≤ 0.2 |
| HDIS | ≤ 0.2 |
| NLYT | ≤ 0.2 |
| AGNR | ≤ 0.2 |
| IKNV | ≤ 0.2 |
| GQNY | ≤ 0.2 |
| QSRA | ≤ 0.2 |

| Variant | one-hybrid fitness for binding parS DNA |
| --- | --- |
| STRT | ≤ 0.2 |
| FIWL | ≤ 0.2 |
| NPLT | ≤ 0.2 |
| SMAM | ≤ 0.2 |
| ARPN | ≤ 0.2 |
| KAIS | ≤ 0.2 |
| QLQC | ≤ 0.2 |
| WLSW | ≤ 0.2 |
| SPYW | ≤ 0.2 |
| RVHG | 1.03 |
| IRKA | ≤ 0.2 |
| TSIS | ≤ 0.2 |
| QWIR | ≤ 0.2 |
| KQAM | ≤ 0.2 |
| HIAT | ≤ 0.2 |
| TGAH | ≤ 0.2 |
| DADS | ≤ 0.2 |
| EHSF | ≤ 0.2 |
| ERCI | ≤ 0.2 |
| HELI | ≤ 0.2 |
| MAVV | ≤ 0.2 |
| VNAV | ≤ 0.2 |
| FCPR | ≤ 0.2 |
| PNEF | ≤ 0.2 |

| Variant | one-hybrid fitness for binding parS DNA |
| --- | --- |
| ACAG | ≤ 0.2 |
| SDMG | ≤ 0.2 |
| GLKG | ≤ 0.2 |
| HRDA | ≤ 0.2 |
| RLVK | ≤ 0.2 |
| TSGP | ≤ 0.2 |
| QGPM | ≤ 0.2 |
| MPTS | ≤ 0.2 |
| MPNC | ≤ 0.2 |
| NNSW | ≤ 0.2 |
| TKPY | ≤ 0.2 |
| YTYL | ≤ 0.2 |
| HFVM | ≤ 0.2 |
| DCRL | ≤ 0.2 |
| HCAL | ≤ 0.2 |
| AEGV | ≤ 0.2 |
| RYKI | ≤ 0.2 |
| MNCG | ≤ 0.2 |
| TSYS | ≤ 0.2 |
| HSYS | ≤ 0.2 |
| RSEC | 0.739 |
| TQNL | ≤ 0.2 |
| ESVC | ≤ 0.2 |
| AFKA | ≤ 0.2 |

| Variant | one-hybrid fitness for binding parS DNA |
| --- | --- |
| DEKH | ≤ 0.2 |
| PCLG | ≤ 0.2 |
| SMPS | ≤ 0.2 |
| DSRS | ≤ 0.2 |
| AVAA | ≤ 0.2 |
| NRNW | ≤ 0.2 |
| DGGR | ≤ 0.2 |
| QGPR | ≤ 0.2 |
| DPHG | ≤ 0.2 |
| WYIG | ≤ 0.2 |
| PLCS | ≤ 0.2 |
| PPEI | ≤ 0.2 |
| TSIR | ≤ 0.2 |
| WCSS | ≤ 0.2 |
| WAKA | ≤ 0.2 |
| KRQA | ≤ 0.2 |
| LTDC | ≤ 0.2 |
| RCVI | ≤ 0.2 |
| DSFM | ≤ 0.2 |
| RHNI | ≤ 0.2 |
| WSFA | ≤ 0.2 |
| DDNL | ≤ 0.2 |
| VMSH | ≤ 0.2 |
| KSLD | ≤ 0.2 |

| Variant | one-hybrid fitness for binding parS DNA |
| --- | --- |
| GDAG | ≤ 0.2 |
| RQGK | ≤ 0.2 |
| HAEV | ≤ 0.2 |
| DCHF | ≤ 0.2 |
| VPTN | ≤ 0.2 |
| TMHV | ≤ 0.2 |
| MLAV | ≤ 0.2 |
| QVCA | ≤ 0.2 |
| GWTS | ≤ 0.2 |
| NRVV | ≤ 0.2 |
| PDTS | ≤ 0.2 |
| DWIE | ≤ 0.2 |
| GGRY | ≤ 0.2 |
| RHIQ | ≤ 0.2 |
| CTCH | ≤ 0.2 |
| KNPP | ≤ 0.2 |
| HRAL | ≤ 0.2 |
| AAFY | ≤ 0.2 |
| KKMC | ≤ 0.2 |
| GCYT | ≤ 0.2 |
| SASH | ≤ 0.2 |
| RVWC | 0.963 |
| TTHT | ≤ 0.2 |
| ATPA | ≤ 0.2 |

| Variant | one-hybrid fitness for binding parS DNA |
| --- | --- |
| KPNG | ≤ 0.2 |
| RSGQ | ≤ 0.2 |
| DDSR | ≤ 0.2 |
| FSNR | ≤ 0.2 |
| YSVE | ≤ 0.2 |
| YLRY | ≤ 0.2 |
| VNRG | ≤ 0.2 |
| TFTA | ≤ 0.2 |
| SRHR | ≤ 0.2 |
| HFDC | ≤ 0.2 |
| GVHA | ≤ 0.2 |
| RQMH | 0.292 |
| PPNT | ≤ 0.2 |
| RGDA | 0.235 |
| PMGL | ≤ 0.2 |
| VFTC | ≤ 0.2 |
| RGKV | ≤ 0.2 |
| WRSY | ≤ 0.2 |
| DRLE | ≤ 0.2 |
| SLSS | ≤ 0.2 |
| EAKF | ≤ 0.2 |
| PDVR | ≤ 0.2 |
| VINR | ≤ 0.2 |
| QRMG | ≤ 0.2 |

| Variant | one-hybrid fitness for binding parS DNA |
| --- | --- |
| QKSQ | ≤ 0.2 |
| NRDT | ≤ 0.2 |
| PVVV | ≤ 0.2 |
| MCRS | ≤ 0.2 |
| QASL | ≤ 0.2 |
| MPTC | ≤ 0.2 |
| RQVT | 0.678 |
| RFGT | 0.775 |
| LVGC | ≤ 0.2 |
| FVMG | ≤ 0.2 |
| RSLW | 0.233 |
| VNSK | ≤ 0.2 |
| PSKY | ≤ 0.2 |
| NNGR | ≤ 0.2 |
| VITI | ≤ 0.2 |
| QRMN | ≤ 0.2 |
| NNCR | ≤ 0.2 |
| RMYC | 1.01 |
| SKVM | ≤ 0.2 |
| LSPT | ≤ 0.2 |
| AVTP | ≤ 0.2 |
| CYDC | ≤ 0.2 |
| NKNT | ≤ 0.2 |
| RATY | 0.469 |

| Variant | one-hybrid fitness for binding parS DNA |
| --- | --- |
| NPAS | ≤ 0.2 |
| GSLA | ≤ 0.2 |
| NDDV | ≤ 0.2 |
| GPPV | ≤ 0.2 |
| TQYV | ≤ 0.2 |
| EDLL | ≤ 0.2 |
| RPNR | ≤ 0.2 |
| VKNC | ≤ 0.2 |
| SRQR | ≤ 0.2 |
| LAPT | ≤ 0.2 |
| WGFG | ≤ 0.2 |
| VLRG | ≤ 0.2 |
| KHRR | ≤ 0.2 |
| PVIS | ≤ 0.2 |
| RQRT | 0.849 |
| EKKR | ≤ 0.2 |
| CRPM | ≤ 0.2 |
| TPQL | ≤ 0.2 |
| IRNC | ≤ 0.2 |
| PVNS | ≤ 0.2 |
| NSHS | ≤ 0.2 |
| NGLL | ≤ 0.2 |
| SMEV | 0.264 |
| ETHT | ≤ 0.2 |

| Variant | one-hybrid fitness for binding parS DNA |
| --- | --- |
| QLGH | ≤ 0.2 |
| AITC | ≤ 0.2 |
| VEGM | ≤ 0.2 |
| RGCV | ≤ 0.2 |
| FPVA | ≤ 0.2 |
| QASR | ≤ 0.2 |
| VEHG | ≤ 0.2 |
| IKVY | ≤ 0.2 |
| VQVC | ≤ 0.2 |
| PFTI | ≤ 0.2 |
| REPV | ≤ 0.2 |
| HWRI | ≤ 0.2 |
| EPSF | ≤ 0.2 |
| ATAD | ≤ 0.2 |
| HLPS | ≤ 0.2 |
| VSHP | ≤ 0.2 |
| QIMS | ≤ 0.2 |
| EADS | ≤ 0.2 |
| LYWS | ≤ 0.2 |
| PLPP | ≤ 0.2 |
| ECKN | ≤ 0.2 |
| WRIS | ≤ 0.2 |
| APPQ | ≤ 0.2 |
| WKDV | ≤ 0.2 |

| Variant | one-hybrid fitness for binding parS DNA |
| --- | --- |
| TPMT | ≤ 0.2 |
| DVAI | ≤ 0.2 |
| AARI | ≤ 0.2 |
| DLHS | ≤ 0.2 |
| QHNF | ≤ 0.2 |
| AHLC | ≤ 0.2 |
| NVAM | ≤ 0.2 |
| QFYV | ≤ 0.2 |
| EDRL | ≤ 0.2 |
| GHQA | ≤ 0.2 |
| RALQ | ≤ 0.2 |
| CLEW | ≤ 0.2 |
| PTDT | ≤ 0.2 |
| YWSL | ≤ 0.2 |
| SREC | ≤ 0.2 |
| KTGW | ≤ 0.2 |
| SASV | ≤ 0.2 |
| RYFN | 0.425 |
| RCLP | ≤ 0.2 |
| SHIG | ≤ 0.2 |
| QHAH | ≤ 0.2 |
| PNWR | ≤ 0.2 |
| PVHI | ≤ 0.2 |
| PWQS | ≤ 0.2 |

| Variant | one-hybrid fitness for binding parS DNA |
| --- | --- |
| LLWS | ≤ 0.2 |
| SLPE | ≤ 0.2 |
| AIGL | ≤ 0.2 |
| CANC | ≤ 0.2 |
| LRLE | ≤ 0.2 |
| SLAW | ≤ 0.2 |
| PQML | ≤ 0.2 |
| DMPN | ≤ 0.2 |
| PYQL | ≤ 0.2 |
| RMDM | 0.302 |
| LDMR | ≤ 0.2 |
| IEMC | ≤ 0.2 |
| RAYY | 0.501 |
| IWIR | ≤ 0.2 |
| ECEG | ≤ 0.2 |
| HETG | ≤ 0.2 |
| WANL | ≤ 0.2 |
| VRER | ≤ 0.2 |
| QIDM | ≤ 0.2 |
| SWLS | ≤ 0.2 |
| APYC | ≤ 0.2 |
| GHNV | ≤ 0.2 |
| KRCA | ≤ 0.2 |
| QTCN | ≤ 0.2 |

| Variant | one-hybrid fitness for binding parS DNA |
| --- | --- |
| PMVW | ≤ 0.2 |
| RTMF | 0.245 |
| RMLT | 0.974 |
| ANHY | ≤ 0.2 |
| ATAF | ≤ 0.2 |
| SMHM | ≤ 0.2 |
| QAIL | ≤ 0.2 |
| RMIM | 0.324 |
| YTIG | ≤ 0.2 |
| TTKK | ≤ 0.2 |
| LFFS | ≤ 0.2 |
| GMVV | ≤ 0.2 |
| SMSL | ≤ 0.2 |
| SWTY | ≤ 0.2 |
| QHHL | ≤ 0.2 |
| WESR | ≤ 0.2 |
| DKAY | ≤ 0.2 |
| STAL | ≤ 0.2 |

Reference: a collection of fitness landscapes (doi:10.1016/j.celrep.2020.107928)
